Reference: PubChem BioAssay AID360 (National Center for Advancing Translational Sciences (NCATS), 2006)
Among all 48,000 compounds or so, about 550 (1.1%) were called active. Inconclusive results (about 4%) are left out. No stated cut-off is given here; in the data, active means potency below about 15 µM; inconclusive means mostly about 16 µM to 33 µM; inactive means weaker than that. This is one part of the list.

Target: Lysosomal acid glucosylceramidase (Homo sapiens) (UniProt P04062)
Assay: Glucocerebrosidase;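 further: the screen sought inhibitors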
Conditions: purified enzyme, resorufin glucoside fluorescence (screen aimed at inhibitors), 20 min
Procedure, shortened: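 Normal human glucocerebrosidase (0.2 nM final) was assayed with resorufin β-D-glucopyranoside (30 uM final) in 50mM citric acid/KH2PO4, 10mM sodium taurocholate, 0.01% tween-20, pH 5.9. Compounds were titrated; fluorescence (Ex 548, Em 600) read after 20 min at RT.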
Potency means the concentration at half of the fitted maximal effect.

Chain of UniProt P04062 (P04062 whole entry, looked up): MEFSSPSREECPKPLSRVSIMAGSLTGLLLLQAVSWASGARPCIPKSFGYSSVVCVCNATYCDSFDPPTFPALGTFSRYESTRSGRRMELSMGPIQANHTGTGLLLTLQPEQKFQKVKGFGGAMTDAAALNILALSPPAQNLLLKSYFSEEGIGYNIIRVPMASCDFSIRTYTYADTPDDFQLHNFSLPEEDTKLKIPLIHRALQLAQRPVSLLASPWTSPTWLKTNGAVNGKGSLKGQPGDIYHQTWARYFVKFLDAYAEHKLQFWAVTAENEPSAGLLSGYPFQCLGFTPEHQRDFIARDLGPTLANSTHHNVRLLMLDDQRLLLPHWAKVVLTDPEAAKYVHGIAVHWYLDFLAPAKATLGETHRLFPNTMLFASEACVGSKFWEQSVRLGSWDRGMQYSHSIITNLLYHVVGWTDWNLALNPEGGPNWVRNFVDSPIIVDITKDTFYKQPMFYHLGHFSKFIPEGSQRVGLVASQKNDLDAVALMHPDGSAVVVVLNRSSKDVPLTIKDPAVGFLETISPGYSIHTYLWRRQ

Row | SMILES | Potency
1 | CN1CCN(C(c2cccnc2)c2ccc3cccnc3c2O)CC1 (centres undefined) | inactive: > 76.9 µM
2 | C=CCn1c(SCC(=O)C(C)(C)C)nnc1-c1cccs1 | inactive: > 76.9 µM
3 | Cc1ccccc1NC(=O)c1ccccc1NC(=O)c1ccco1 | inactive: > 76.9 µM
4 | CCOc1ccccc1N1CC(O)=C(c2nc3ccccc3s2)C1=N | inactive
5 | CCn1c(-c2ccsc2)nc2c1c(=O)[nH]c(=O)n2Cc1ccccc1 | inactive: > 76.9 µM
6 | COc1ccc(CNC(=O)CCn2c(=O)oc3ccccc32)cc1 | inactive: > 76.9 µM
7 | CCN(CC)CCNC(=O)C1c2cc(OC)c(OC)cc2C(=O)N2CCc3ccccc3C12 (centres undefined) | inactive: > 76.9 µM
8 | Cc1nc2nc(-c3cccnc3)[nH]n2c(=O)c1Cc1ccccc1 | inactive: > 76.9 µM
9 | O=C(Nc1ccccc1)c1cccc(N2C(=O)CCC2=O)c1 | inactive: > 76.9 µM
10 | CC1CCCC(NC(=O)CSc2ncccc2C(=O)O)C1C (centres undefined) | inactive: > 76.9 µM
11 | COc1cccc(NC2=NC3(CCCCC3)N=C(N)N2)c1 | inactive: > 76.9 µM
12 | O=C(c1ccco1)N1CCN(CC(O)COc2ccc3oc4ccccc4c3c2)CC1 (centres undefined) | inactive: > 76.9 µM
13 | COc1ccc(-n2nnnc2SCC(=O)Nc2ccc3c(c2)OCCO3)c(OC)c1 | inactive: > 76.9 µM
14 | CC1Cc2ccccc2N1C(=O)CSc1nc2ccccc2n1CC(=O)N1CCOCC1 (centres undefined) | inactive: > 76.9 µM
15 | O=C(Nc1cccc(C(=O)N2CCCCCC2)c1)c1ccco1 | inactive: > 76.9 µM
16 | CCOC(=O)c1cn(CC)c2cc(N3CCSCC3)c(F)cc2c1=O | inactive: > 76.9 µM
17 | CCS(=O)(=O)Nc1ccc(-c2nnc(SCC(=O)OC)o2)cc1 | inactive: > 76.9 µM
18 | O=C(OCC(=O)N1CCN(C(=O)c2ccco2)CC1)c1cc(-c2ccc(F)cc2)nc2ccccc12 | inactive: > 76.9 µM
19 | CC1CC(=O)c2cnc(NCc3ccco3)nc2C1 (centres undefined) | inactive: > 76.9 µM
20 | COc1ccccc1C(=O)Nc1ccccn1 | inactive: > 76.9 µM
21 | COC(=O)c1cccc(Oc2nc(N3CCOCC3)nc(N3CCOCC3)n2)c1 | inactive: > 76.9 µM
22 | O=c1cc(-c2ccccc2)nc(N2CCN(Cc3ccc4c(c3)OCO4)CC2)[nH]1 | inactive: > 76.9 µM
23 | Cc1ccc2cc3c(NC(=O)c4cccnc4)nn(C)c3nc2c1 | inactive: > 76.9 µM

Row | SMILES | Potency
24 | COc1ccccc1N(C)S(=O)(=O)c1ccc(C(=O)NC2=NCCS2)cc1 | inactive: > 76.9 µM
25 | Cc1ccc(NC(=O)C2CC(=O)NC(N3CCc4ccccc43)=N2)cc1 (centres undefined) | inactive: > 76.9 µM
26 | COc1ccc(OC)c(C2N(c3ccccn3)C(=O)C3CCCN32)c1 (centres undefined) | inactive: > 76.9 µM
27 | CC1CC=C2C(C#N)=C(N)C(C#N)(C#N)C(c3cccs3)C2C1 (centres undefined) | active: 10.7 µM
28 | CC(C)CCn1nc(C(=O)OC(C)C(=O)NC(N)=O)c2ccccc2c1=O (centres undefined) | inactive: > 76.9 µM
29 | CCOC(=O)CNc1c(-c2ccc(Cl)cc2)nc2cnccn12 | inactive
30 | CC(=O)c1cccc(N(C(=O)c2ccco2)C(C(=O)NC2CCCC2)c2ccncc2)c1 (centres undefined) | inactive: > 76.9 µM
31 | CC12CCC(=O)N1C(C(=O)O)Cc1c2[nH]c2ccccc12 (centres undefined) | inactive: > 76.9 µM
32 | O=C(COc1ccccc1Cl)NC(=O)NC1CCCC1 | inactive: > 76.9 µM
33 | O=C(c1csc2ccccc12)n1cccn1 | inactive: > 76.9 µM
34 | COc1cccc(NC(=O)CSc2nc3c(c(-c4ccco4)c2C#N)CCCC3)c1 | inactive: > 76.9 µM
35 | Cc1cc(Nc2ccccc2)n(-c2ccccc2)n1 | inactive: > 76.9 µM
36 | CCOC(=O)N1CCN(C(=O)COc2cc(=O)n(C)c3ccccc23)CC1 | inactive: > 76.9 µM
37 | COc1ccc(-n2c(SCC(=O)N3CCCCC3)nnc2-c2cccnc2)cc1 | inactive: > 76.9 µM
38 | Cc1c(CCC(=O)O)c(=O)oc2cc3occ(-c4ccc(F)cc4)c3cc12 | inactive: > 76.9 µM
39 | O=C(c1noc2c1CCc1ccccc1-2)N1CCc2ccccc2C1 | inactive: > 76.9 µM
40 | Cc1ccc2c(n1)sc1c(N)ncnc12 | inactive: > 76.9 µM
41 | CCOc1ccc(NC(=O)CN2CCN(CC(=O)Nc3ccc(F)c(F)c3)CC2)cc1 | inactive: > 76.9 µM
42 | CCOc1cc(CNc2ccc3[nH]c(=O)[nH]c3c2)ccc1OCC(=O)NC(C)(C)C | inactive: > 76.9 µM
43 | COc1ccc(F)cc1S(=O)(=O)NC1CCCCCC1 | inactive: > 76.9 µM
44 | CCOC(=O)N1CCC(NC(=O)c2cnn3c2NC(c2ccco2)CC3C(F)(F)F)CC1 (centres undefined) | inactive: > 76.9 µM
45 | CCOC(=O)c1c(NC(=O)CSc2nc3c(c(=O)n(C)c(=O)n3C)n2CC)sc(C)c1C | inactive: > 76.9 µM
46 | COc1ccc(Oc2c(C)oc3c(CN(C)C)c(O)ccc3c2=O)cc1 | inactive: > 76.9 µM

Row | SMILES | Potency
47 | COc1ccc(CCNC(=O)C2CCN(S(=O)(=O)N3CCCCCC3)CC2)cc1OC | inactive: > 76.9 µM
48 | CNS(=O)(=O)c1cccc(C(=O)OCC(=O)Nc2ccccc2OC(F)F)c1 | inactive: > 76.9 µM
49 | CCCS(=O)(=O)N1CCC(C(=O)NCCCN(CC)c2cccc(C)c2)CC1 | inactive: > 76.9 µM
50 | CNS(=O)(=O)c1cc(OC)ccc1OC | inactive: > 76.9 µM
51 | COC(=O)C1C(=O)C2=C(CC1C)NC(C)=C(C(=O)OC(C)C)C2c1ccc(OC)c(O)c1 (centres undefined) | inactive: > 76.9 µM
52 | O=C(c1cccc(C(F)(F)F)c1)N1CCN(C2CCCCC2)CC1 | inactive: > 76.9 µM
53 | CC(=O)Nc1nc2c(c3c1c(=O)oc1ccccc13)CCCCC2 | inactive: > 76.9 µM
54 | Cc1cccc(C)c1NC(=O)Cn1cnc2c(=O)n(C)c(=O)n(C)c21 | inactive: > 76.9 µM
55 | COc1cccc(C2C(C(=O)c3cc4ccccc4o3)=C(O)C(=O)N2c2cc(C)on2)c1OC (centres undefined) | inactive: > 76.9 µM
56 | Cc1cc(C)c2cc(C#N)c(N3CCCC3)nc2c1 | inactive: > 76.9 µM
57 | C1CCC(OCCN2CCN(CCOC3CCCCC3)CC2)CC1 | inactive: > 76.9 µM
58 | COc1ccccc1N1CCN(CC(=O)c2c(C)[nH]c3ccccc23)CC1 | inactive: > 76.9 µM
59 | CCOC(=O)Nc1ccc2c(c1)N(C(=O)CCN1CCN3CCCC3C1)c1ccccc1CC2 (centres undefined) | inactive: > 76.9 µM
60 | Cc1ccc(C)n1-n1cnc2sc(-c3ccccc3)cc2c1=O | inactive: > 76.9 µM
61 | CCN(CC)CC(=O)Nc1ccc(C)cc1Br | inactive: > 76.9 µM
62 | COc1cc(C(=O)NCCC(=O)NCCCN2CCCCC2)cc(OC)c1OC | inactive: > 76.9 µM
63 | O=C(CN1CCN(c2ncccn2)CC1)N1CCN(C(c2ccccc2)c2ccccc2)CC1 | inactive: > 76.9 µM
64 | CCOc1ccc(-c2ncncc2-c2ccc(OC)cc2)c(O)c1 | inactive: > 76.9 µM
65 | O=C(NC1CCC(C(=O)O)CC1)OCc1ccccc1 (centres undefined) | inactive: > 76.9 µM
66 | Cc1ccc(OCC(=O)Nc2ccc3c(c2)nc2n3CCOC2)cc1 | inactive
67 | CCOc1ccc(-c2[nH]ncc2-c2ccc(OC)c(OC)c2)c(O)c1 | inactive: > 76.9 µM
68 | CCOc1cc(N2CCOCC2)c(OCC)cc1NC1=NCCCCC1 | inactive: > 76.9 µM
69 | CCOc1ccc(N2CCCn3c2nc2c3c(=O)n(CCc3ccccc3)c(=O)n2C)cc1 | inactive: > 76.9 µM

Row | SMILES | Potency
70 | Cc1ccc(N=Cc2nc(-c3ccco3)oc2O)cc1 | inactive: > 76.9 µM
71 | COc1ccc(-c2csc(N3CCN(Cc4ccc5c(c4)OCO5)CC3)n2)cc1 | inactive: > 76.9 µM
72 | O=C(Nc1ccc(Br)cc1)C1CCCN1S(=O)(=O)c1cccs1 (centres undefined) | inactive: > 76.9 µM
73 | Cc1[nH]c(=O)[nH]c(=O)c1CSc1nnc([C@H](CC(C)C)NC(=O)OC(C)(C)C)o1 | inactive: > 76.9 µM
74 | CN1CCc2c(sc3c2C(=O)NC(/C=C/c2ccco2)N3)C1 (centres undefined) | inactive: > 76.9 µM
75 | CCOC(=O)c1ccc(N(CC(=O)NC2CCCC2)C(=O)CNC(=O)c2ccco2)cc1 | inactive: > 76.9 µM
76 | CCOc1ccc(C(=O)N2CCC(C(=O)c3ccc4c(c3)OCCO4)CC2)cc1 | inactive: > 76.9 µM
77 | CC(C)(C)NC(=O)c1ccc(COc2ccccc2Br)o1 | inactive: > 76.9 µM
78 | CS(=O)(=O)N1CCC(C(=O)N2CCc3ccccc3C2)CC1 | inactive: > 76.9 µM
79 | Cn1cnnc1-c1cccc(NS(=O)(=O)c2ccc(N3CCCC3=O)cc2)c1 | inactive: > 76.9 µM
80 | Cc1ccc(Cn2c(=O)n(Cc3ccco3)c(=O)c3ccccc32)cc1 | inactive: > 76.9 µM
81 | Cc1nnc(SCCn2c(N3CCC(C)CC3)nc3c2c(=O)n(C)c(=O)n3C)s1 | inactive: > 76.9 µM
82 | C=C(C)C1Cc2c(C)nn(-c3ccccc3)c2C1 (centres undefined) | inactive: > 76.9 µM
83 | Cc1nnc(SCC(=O)N2c3ccccc3Sc3ccccc32)n1N | inactive: > 76.9 µM
84 | CCCCn1c(SCC(=O)N2CC(C)CC(C)C2)nc2cc(S(N)(=O)=O)ccc21 (centres undefined) | inactive: > 76.9 µM
85 | O=C(CCSc1nc(-c2ccco2)cc(C(F)(F)F)n1)N1CCCc2ccccc21 | inactive: > 76.9 µM
86 | O=C(c1ccccc1-c1ccccc1)N1CCN(c2ccccn2)CC1 | inactive: > 76.9 µM
87 | O=C(NCc1ccc(F)cc1)N[C@@H](Cc1ccccc1)C(=O)O | inactive: > 76.9 µM
88 | CCOC(=O)c1cnc2c(C(=O)OC)cccc2c1NCCN1CCOCC1 | inactive: > 76.9 µM
89 | O=C(NC1CCCCC1)n1c(=O)oc2ccc(Cl)cc21 | inactive: > 76.9 µM
